Assay results as given in a collection of fitness landscapes (doi:10.1126/science.1257360).
Some of the results follow.

B1: PhoQ; a variant is named by its letters at X, in order, P23837 (parent)
chain: MKKLLRLFFPLSLRVRFLLATAAVVLVLSLAYGMVALIGYSVSFDKTTFRLLRGESNLFYTLAKWENNKLHVELPENIDKQSPTMTLIYDENGQLLWAQRDVPWLMKMIQPDWLKSNGFHEIEADVNDTSLLLSGDHSIQQQLQEVREDDDDAEMTHSVAVNVYPATSRMPKLTIVVVDTIPVELKSSYMVWSWFIYVLSANLLLVIPLLWVAAWWSLRPIEALAKEVRELEEHNRELLNPATTRELTSLVRNLNRLLKSERERYDKYRTTLTDLTHSLKTPLXXLQXXLRSLRSEKMSVSDAEPVMLEQISRISQQIGYYLHRASMRGGTLLSRELHPVAPLLDNLTSALNKVYQRKGVNISLDISPEISFVGEQNDFVEVMGNVLDNACKYCLEFVEISARQTDEHLYIVVEDDGPGIPLSKREVIFDRGQRVDTLRPGQGVGLAVAREITEQYEGKIVAGESMLGGARMEVIFGRQHSAPKDE

Variants of: B1
Test: enrichment ratio after two sorts for PhoP signalling (ratio (wild type AVST 3.29)); higher = more functional
Conditions: with PhoP (E. coli)

Variant	enrichment ratio
HIQG	≤ 0.25
ALLS	1.84
YPCI	≤ 0.25
GQVE	≤ 0.25
QDIY	≤ 0.25
LQDH	≤ 0.25
YQYC	≤ 0.25
WDVH	≤ 0.25
EYFP	≤ 0.25
DKAG	≤ 0.25
EGVC	≤ 0.25
DYYQ	≤ 0.25
DLTF	≤ 0.25
EDMR	≤ 0.25
PRFE	≤ 0.25
PRPQ	≤ 0.25
PQVI	≤ 0.25
DRPG	≤ 0.25
KTLH	≤ 0.25
PFIK	2.22
NRWQ	≤ 0.25
WATK	≤ 0.25
WFIA	≤ 0.25
PWIY	≤ 0.25

Variant	enrichment ratio
YLLT	≤ 0.25
RVAS	≤ 0.25
RPGR	≤ 0.25
DDHW	≤ 0.25
DAKF	≤ 0.25
YHTK	≤ 0.25
KHMV	≤ 0.25
DCDY	≤ 0.25
QQRV	≤ 0.25
HRHP	≤ 0.25
WQVR	≤ 0.25
IYTT	≤ 0.25
QFAI	≤ 0.25
PDHE	≤ 0.25
WDSM	≤ 0.25
NGTY	≤ 0.25
LHKM	≤ 0.25
RDRR	≤ 0.25
NPFY	≤ 0.25
SHVD	≤ 0.25
RAIN	≤ 0.25
MFNS	≤ 0.25
EFIP	≤ 0.25
NCFL	≤ 0.25

Variant	enrichment ratio
TAPI	≤ 0.25
ARIV	≤ 0.25
PIRG	≤ 0.25
NMWH	≤ 0.25
RACR	≤ 0.25
SMLR	1.96
AVNR	≤ 0.25
FEWA	≤ 0.25
VTRC	≤ 0.25
IDRQ	≤ 0.25
PRIY	≤ 0.25
MIIN	≤ 0.25
GYLL	≤ 0.25
ATIY	10.1
LQME	≤ 0.25
AKMG	18.6
DCWM	≤ 0.25
RNMY	≤ 0.25
MSWL	14.4
YFWN	≤ 0.25
STQT	≤ 0.25
PCYE	≤ 0.25
LYRE	≤ 0.25
REIF	≤ 0.25

Variant	enrichment ratio
RIWY	≤ 0.25
MPMR	≤ 0.25
MGFV	4.89
YKRW	≤ 0.25
PKGP	4.39
GRGA	≤ 0.25
TDWP	≤ 0.25
HHMV	≤ 0.25
PQMI	≤ 0.25
YEQV	≤ 0.25
KNTR	≤ 0.25
GRGN	≤ 0.25
LTTF	≤ 0.25
KNSP	≤ 0.25
LPQL	≤ 0.25
VLQY	≤ 0.25
KKHL	≤ 0.25
VHKA	≤ 0.25
IWFP	≤ 0.25
SLQK	≤ 0.25
KVTY	≤ 0.25
TALY	6.91
FANR	≤ 0.25
ADPP	≤ 0.25

Variant	enrichment ratio
IGAC	≤ 0.25
QDCV	≤ 0.25
YCMS	≤ 0.25
NGIC	≤ 0.25
ASFP	≤ 0.25
DCYW	≤ 0.25
MEYR	≤ 0.25
VNWS	≤ 0.25
WWYP	≤ 0.25
VQQM	≤ 0.25
GPDW	≤ 0.25
PWVK	≤ 0.25
PFYE	≤ 0.25
YTYN	≤ 0.25
SAWI	≤ 0.25
FSGH	≤ 0.25
YYGQ	≤ 0.25
SQVT	5.85
FMGM	≤ 0.25
DYFL	≤ 0.25
STND	≤ 0.25
SLLP	≤ 0.25
VYNR	≤ 0.25
TVYI	0.878

Variant	enrichment ratio
STRR	≤ 0.25
RHYH	≤ 0.25
IWYH	≤ 0.25
HWPG	5.95
RESD	≤ 0.25
LQKV	≤ 0.25
TKDG	≤ 0.25
AHAH	≤ 0.25
DCKG	≤ 0.25
VDFH	≤ 0.25
PTRR	≤ 0.25
TGTM	15
TFGK	≤ 0.25
WERA	≤ 0.25
QPVK	≤ 0.25
AFYS	≤ 0.25
IGLK	≤ 0.25
MPDP	≤ 0.25
GERL	≤ 0.25
RVYI	≤ 0.25
TNMT	7.25
GPRL	≤ 0.25
ALNF	0.952
WIFL	≤ 0.25

Variant	enrichment ratio
SLLM	6.84
MWFE	≤ 0.25
VEIR	≤ 0.25
DQQV	≤ 0.25
MLFR	≤ 0.25
YQIT	≤ 0.25
SLWE	≤ 0.25
VFCW	≤ 0.25
NSMM	1.7
ATTR	≤ 0.25
HEHV	≤ 0.25
RQMV	≤ 0.25
DEMG	≤ 0.25
LWSW	≤ 0.25
KSPK	≤ 0.25
EQGG	≤ 0.25
WCHI	≤ 0.25
WLAK	≤ 0.25
LDER	≤ 0.25
QDYN	≤ 0.25
PYFE	≤ 0.25
WNFI	≤ 0.25
VSNR	≤ 0.25
EGRV	≤ 0.25

Variant	enrichment ratio
PPQH	≤ 0.25
WDCP	≤ 0.25
ISLV	5.81
QKMF	≤ 0.25
DMRN	≤ 0.25
LQLN	0.282
TKGQ	≤ 0.25
AEHH	≤ 0.25
FSHC	≤ 0.25
LQYM	≤ 0.25
IKML	≤ 0.25
INVS	≤ 0.25
TVGR	9.19
GVRG	≤ 0.25
NFAT	≤ 0.25
PIFM	≤ 0.25
ARNT	≤ 0.25
FNFE	≤ 0.25
QRDD	≤ 0.25
FGNI	≤ 0.25
DYWS	≤ 0.25
LGPG	≤ 0.25
NSAE	≤ 0.25
QANT	≤ 0.25

Variant	enrichment ratio
QWFW	≤ 0.25
EAGP	≤ 0.25
LLRK	≤ 0.25
FWDS	≤ 0.25
VWHI	≤ 0.25
TPVA	≤ 0.25
WAAG	≤ 0.25
PSTN	≤ 0.25
ECIH	≤ 0.25
RKEL	≤ 0.25
FWMA	≤ 0.25
EYRC	≤ 0.25
TTHE	11.2
NKGE	≤ 0.25
WPEE	≤ 0.25
HTCY	≤ 0.25
YTGK	≤ 0.25
QPTE	≤ 0.25
LLFM	≤ 0.25
GPGY	≤ 0.25
GVPC	≤ 0.25
SLMK	0.313
TPMF	≤ 0.25
KIIN	≤ 0.25

Variant	enrichment ratio
EPNI	≤ 0.25
DQVH	≤ 0.25
WLVM	≤ 0.25
VNFS	≤ 0.25
HTKG	≤ 0.25
IVCW	≤ 0.25
SATC	5.33
NKFF	≤ 0.25
PIIF	≤ 0.25
GKRP	≤ 0.25
HQTN	≤ 0.25
FPHA	≤ 0.25
GEKD	≤ 0.25
KRNQ	≤ 0.25
LHWT	≤ 0.25
TGYQ	15.9
DQSN	≤ 0.25
WAMI	≤ 0.25
CGQL	14.3
QILQ	≤ 0.25
IIKG	≤ 0.25
SSMT	10.9
HKFK	≤ 0.25
QYHW	≤ 0.25

Variant	enrichment ratio
ITGQ	≤ 0.25
QKRH	≤ 0.25
PEIE	≤ 0.25
GSCQ	8.75
MLCE	≤ 0.25
PDDW	≤ 0.25
SMTN	4.88
RITD	≤ 0.25
HGCD	≤ 0.25
LPRK	≤ 0.25
VNKQ	≤ 0.25
FDKD	≤ 0.25
YTIV	0.385
ICTP	≤ 0.25
MKMP	≤ 0.25
WISK	≤ 0.25
IPCS	≤ 0.25
WICV	≤ 0.25
LYAW	≤ 0.25
NKKI	≤ 0.25
GVGH	≤ 0.25
NKSR	≤ 0.25
ILRW	≤ 0.25
SWKE	≤ 0.25

Variant	enrichment ratio
WGWC	≤ 0.25
NFCS	≤ 0.25
GFTK	≤ 0.25
SYMP	≤ 0.25
TQWG	18.3
GFDG	≤ 0.25
VTYW	≤ 0.25
KPMF	≤ 0.25
TQMW	3.21
ADSR	≤ 0.25
MRPK	≤ 0.25
DDKG	≤ 0.25
PENR	≤ 0.25
FKPA	≤ 0.25
GRHH	≤ 0.25
TCIL	≤ 0.25
VYNY	0.314
KIKS	≤ 0.25
METN	1.27
IKDK	≤ 0.25
IWPG	≤ 0.25
CLFH	≤ 0.25
NGFA	≤ 0.25
REFK	≤ 0.25

Variant	enrichment ratio
WRGA	≤ 0.25
YTLQ	12.8
IGNA	≤ 0.25
LKPA	≤ 0.25
TIRM	5.12
REKY	≤ 0.25
YCHC	≤ 0.25
MDDV	≤ 0.25
SLST	2.81
NADY	≤ 0.25
FMKM	≤ 0.25
IEQP	≤ 0.25
TFYH	≤ 0.25
GYEY	≤ 0.25
QIYT	2.99
SVDM	≤ 0.25
RLHW	≤ 0.25
DCDC	≤ 0.25
